# Data taken from PubChem BioAssay AID504332 (National Center for Advancing Translational Sciences (NCATS), 2011).
# Out of some 350,000 compounds screened, about 31,000 (8.9%) were called active. Inconclusive results, whose numbers are uncertain, are shown with a selection of clear calls. The call rests on the fitted dose curve; in most records, active means well fitted inhibition curve with a large enough effect; inconclusive means small, poorly fitted or top-dose-only effect; inactive means no such curve, though single readings can be large or run the other way. Potencies beside an inconclusive call are fits to weak or partial responses and may not hold up.
# Biological target: Histone-lysine N-methyltransferase EHMT2 (Homo sapiens) (UniProt Q96KQ7)
# Experiment: qHTS Assay for Inhibitors of Histone Lysine Methyltransferase G9a; further: nearly all actives have a fitted effect of over 75% in size
# Details: G9a H3K9 monomethylation, AlphaScreen, 2 h; activity, negative = inhibition: at 59 µM (top of the series) unless noted
# Procedure, shortened: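 Using a bead-based AlphaScreen, monomethylated H3K9 product from 2 h room-temperature reactions (G9a 20 nM, peptide 500 nM, SAM 20 uM) was detected with 0.5 ug/mL rabbit anti-H3K9me1 antibody.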
# On the % scale 0 is the no-effect control and ±100 the full control effect; potency means the concentration at half of the fitted maximal effect; tags describe the fitted curve by direction and shape.
# UniProt Q96KQ7, sequence (Q96KQ7 whole entry, looked up): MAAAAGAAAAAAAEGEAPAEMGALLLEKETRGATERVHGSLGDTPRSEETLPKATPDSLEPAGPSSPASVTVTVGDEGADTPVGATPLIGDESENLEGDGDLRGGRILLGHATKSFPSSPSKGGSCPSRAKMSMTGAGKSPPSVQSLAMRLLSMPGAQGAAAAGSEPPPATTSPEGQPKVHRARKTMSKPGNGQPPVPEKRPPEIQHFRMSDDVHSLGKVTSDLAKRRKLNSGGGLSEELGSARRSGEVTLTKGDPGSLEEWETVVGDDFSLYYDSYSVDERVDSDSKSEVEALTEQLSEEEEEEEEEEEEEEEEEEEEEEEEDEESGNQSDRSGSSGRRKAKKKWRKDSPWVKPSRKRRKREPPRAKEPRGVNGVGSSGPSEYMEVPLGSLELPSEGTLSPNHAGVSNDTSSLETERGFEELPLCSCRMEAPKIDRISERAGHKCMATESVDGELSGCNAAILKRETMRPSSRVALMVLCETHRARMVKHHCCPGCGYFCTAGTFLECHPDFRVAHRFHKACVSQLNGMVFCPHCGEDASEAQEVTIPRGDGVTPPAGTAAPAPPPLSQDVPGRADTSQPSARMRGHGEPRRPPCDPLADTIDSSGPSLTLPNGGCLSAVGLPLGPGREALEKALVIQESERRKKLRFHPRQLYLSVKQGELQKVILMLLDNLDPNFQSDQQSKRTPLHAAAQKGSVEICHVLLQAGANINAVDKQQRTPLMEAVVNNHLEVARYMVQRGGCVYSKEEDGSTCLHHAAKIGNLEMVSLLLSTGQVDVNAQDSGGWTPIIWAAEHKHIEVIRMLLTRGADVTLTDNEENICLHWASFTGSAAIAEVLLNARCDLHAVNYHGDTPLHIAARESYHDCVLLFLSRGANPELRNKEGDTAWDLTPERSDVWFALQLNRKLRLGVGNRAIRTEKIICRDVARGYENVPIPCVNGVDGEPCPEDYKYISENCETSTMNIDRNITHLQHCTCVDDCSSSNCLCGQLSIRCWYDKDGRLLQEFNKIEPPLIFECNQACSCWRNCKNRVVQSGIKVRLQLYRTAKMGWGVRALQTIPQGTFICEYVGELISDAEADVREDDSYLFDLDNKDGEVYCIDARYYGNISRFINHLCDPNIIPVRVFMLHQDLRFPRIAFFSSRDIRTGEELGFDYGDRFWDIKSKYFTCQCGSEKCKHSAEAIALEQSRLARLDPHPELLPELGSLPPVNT
Compound,"activity, negative = inhibition",Potency
Oc1ccc(/C=N/N2CCN(Cc3ccccc3)CC2)cc1,inactive: -3.06% [at 0.501 µM],
Cc1cccc(N2CCN(C(=O)C3CCCN(S(=O)(=O)c4ccc(Br)s4)C3)CC2)c1C (configuration not stated),,"inconclusive: 0.178 µM [inhibitor, full curve, poor fit]"
O=C(CCNC(=O)c1ccc([N+](=O)[O-])cc1)Nc1cccc(S(=O)(=O)N2CCOCC2)c1,,"inconclusive: 8.91 µM [inhibitor, full curve]"
COc1cccc(NS(=O)(=O)c2ccc3c(c2)[C@H]2C=CC[C@H]2[C@@H](c2ccccc2Cl)N3)c1,,"inconclusive: 8.91 µM [inhibitor, partial curve, poor fit]"
CC1Cc2ccccc2N1CC(=O)Nc1ccc2c(c1)OCO2 (configuration not stated),,"inconclusive: 3.55 µM [inhibitor, single point]"
COc1ccc(Oc2coc3cc(O)ccc3c2=O)cc1,inactive: 9.59% [at 102 µM],
Cn1c(=O)c2[nH]c(=O)cnc2n(C)c1=S,,active: 50.1 µM
OCCCNc1ncnc2scc(-c3ccc(Cl)cc3)c12,,"inconclusive: 39.8 µM [inhibitor, single point]"
CC(C)C(c1nnnn1C1CCCC1)N1CCCCC1 (configuration not stated),,"inconclusive: 20 µM [inhibitor, partial curve, poor fit]"
CC(C)C(=O)Nc1ccc2c(c1)Cc1cc(NC(=O)C(C)C)ccc1-2,inactive: -36.3% [at 102 µM],
Cc1ccc(-n2nc(C)c3c2OC(N)=C(C#N)C3c2ccoc2)cc1 (configuration not stated),,"inconclusive: 31.6 µM [inhibitor, single point]"
CCOc1ccc(C(=O)OCC(=O)NCc2ccco2)cc1OCC,,active: 50.1 µM
CN(CC(=O)Nc1sccc1C#N)S(=O)(=O)c1ccc(F)cc1,,"inconclusive: 79.4 µM [inhibitor, single point]"
COC(=O)CSc1nc2c(cnn2-c2ccc(Cl)cc2)c(=O)[nH]1,inactive: 9.41% [at 102 µM],
O=C1OCCC1Sc1nc2cc(Cl)ccc2s1 (configuration not stated),,"inconclusive: 44.7 µM [inhibitor, partial curve]"
Cc1ccc(C(=O)NCC(=O)OCC(=O)Nc2cc(C)c(C)cc2[N+](=O)[O-])cc1,,"inconclusive: 14.1 µM [inhibitor, partial curve]"
COc1cccc(CNC(=O)Cc2ccc(NC(=O)N3CCSc4ncccc43)cc2)c1OC,inactive: -2.28%,
O=C(NCc1cccnc1)c1nc(-c2ccccc2)n(-c2ccccc2)n1,,"inconclusive: 70.8 µM [inhibitor, partial curve, poor fit]"
CC(=O)c1cc(-c2ccccc2)n(CC(=O)N2CCCC2)c1C,,"inconclusive: 89.1 µM [inhibitor, partial curve, poor fit]"
COc1ccccc1NS(=O)(=O)c1ccc(Cl)c(NC(=O)C(C)N2C(=O)c3ccccc3C2=O)c1 (configuration not stated),,active: 50.1 µM
CSc1ccc(S(=O)(=O)NCC(=O)OCC(=O)NCCc2ccccc2)cc1[N+](=O)[O-],,"inconclusive: 79.4 µM [inhibitor, single point]"
CCOC(=O)c1cnc(NCc2ccccc2)nc1C,inactive: 5.57%,
COc1ccc(CN(C)C(=O)COC(=O)c2ccc(-c3ccccc3)cc2)c(OC)c1OC,,"inconclusive: 44.7 µM [inhibitor, partial curve]"
COc1ccc(-c2nc3ccccc3n2CCC(C)C)cc1OC,inactive: -2.19% [at 102 µM],

Compound,"activity, negative = inhibition",Potency
CCOc1ccc(Br)cc1S(=O)(=O)Nc1ccc(C(=O)Nc2ccccc2OC)cc1,,"inconclusive: 39.8 µM [inhibitor, single point]"
Cc1c(Cl)cccc1NC(=O)Cn1cccc1,,"inconclusive: 89.1 µM [inhibitor, partial curve, poor fit]"
COc1cc(NC(=O)CN(c2ccc(C)cc2)S(=O)(=O)c2c(C)nn(C)c2C)cc(OC)c1,,"inconclusive: 89.1 µM [inhibitor, single point]"
CCOC(=O)c1ccccc1NC(=O)COC(=O)c1cc([N+](=O)[O-])ccc1N1CCOCC1,,"inconclusive: 14.1 µM [inhibitor, partial curve, poor fit]"
Cc1cc(OCC(=O)N2CCOCC2)cc2oc(=O)c3ccccc3c12,inactive: -40.9%,
Cc1oc(-c2ccccc2F)nc1CS(=O)(=O)CC(=O)N1CCN(Cc2ccccc2)CC1,,active: 50.1 µM
N#Cc1nc(Cc2cccc3ccccc23)oc1N1CCOCC1,inactive: -24.8%,
Cc1ccccc1OCC(=O)NNC(=O)C1CCCCC1C(=O)O (configuration not stated),,"inconclusive: 89.1 µM [inhibitor, single point]"
Cc1cc(N=CC2=C(O)CCCC2=O)no1,,"inconclusive: 79.4 µM [inhibitor, single point]"
CCCOn1nnnc1-c1ccccc1,inactive: 6.35%,
CC(OC(=O)CCc1c[nH]c2ccccc12)C(=O)c1ccccc1 (configuration not stated),,"inconclusive: 44.7 µM [inhibitor, partial curve, poor fit]"
Cc1ccc(C(=O)NC2CCCc3ccccc32)cc1[N+](=O)[O-] (configuration not stated),inactive: 9.66% [at 102 µM],
CC(C)CCn1c(N2CCN(c3cccc(Cl)c3)CC2)nc2c1c(=O)[nH]c(=O)n2C,inactive: 0.228%,
CCOC(=O)c1ccc(-c2ccc(/C=C(\C#N)C(=O)NCC3CCCO3)o2)cc1 (configuration not stated),inactive: 44.3% [at 12.7 µM],
CCOCCCN1CC(C(=O)NCCc2ccccc2)CC1=O (configuration not stated),inconclusive: -51.1% [inhibitor] [at 102 µM],
CCc1ccc(CN(Cc2ccco2)c2cnc(S(C)(=O)=O)nc2C(=O)Nc2c(C)cccc2C)cc1,,"inconclusive: 22.4 µM [inhibitor, partial curve, poor fit]"
CCCc1cc(N2CCN(c3ccccc3)CC2)n2cnnc2n1,,"inconclusive: 0.794 µM [inhibitor, partial curve, poor fit]"
O=S(=O)(c1ccccc1)c1nc(-c2cccs2)oc1NCC1CCCO1 (configuration not stated),,active: 31.6 µM
CCOC(=O)c1ccc(S(=O)(=O)Nc2ccc3cn[nH]c3c2)cc1,,"inconclusive: 56.2 µM [inhibitor, partial curve, poor fit]"
Cc1ccc(C)c(S(=O)(=O)c2c(C)cc(C)[nH]c2=O)c1,inactive: 3.39% [at 102 µM],
CNc1nc(-c2ccc([N+](=O)[O-])cc2)cs1,inactive: -38.1%,
COc1cc(/C=C/C(=O)OCC(=O)NC(=O)NC(C)C)cc(S(=O)(=O)N2CCc3ccccc32)c1OC,,"inconclusive: 22.4 µM [inhibitor, partial curve, poor fit]"
O=S(=O)(c1ccc2c(c1)CCN2)N1CCOCC1,,"inconclusive: 2.24 µM [inhibitor, partial curve, poor fit]"
Cc1oc(-c2ccccc2F)nc1CSCC(=O)N1CCN(c2ccccc2)CC1,,"inconclusive: 28.2 µM [inhibitor, partial curve, poor fit]"

Compound,"activity, negative = inhibition",Potency
COc1ccc(/C(C)=N/N2C(=O)c3ccccc3NC2c2ccc(O)c(OC)c2)cc1 (configuration not stated),,"inconclusive: 50.1 µM [inhibitor, partial curve, poor fit]"
CCNC(=S)N(Cc1ccccc1)Cc1nc2ccccc2c(=O)[nH]1,,"inconclusive: 0.891 µM [inhibitor, full curve, poor fit]"
Cc1nc2nc(NC(=O)c3ccc(C(C)(C)C)cc3)[nH]n2c(=O)c1Cl,,"inconclusive: 17.8 µM [inhibitor, single point]"
O=C(NCc1ccc(F)cc1)C(c1ccccc1)N(C(=O)c1csnn1)C1CCCC1 (configuration not stated),,"inconclusive: 89.1 µM [inhibitor, single point]"
CCN(CC)S(=O)(=O)c1ccc(OC)c(NC(=O)C2CC(=O)N(c3ccc(C)cc3)C2)c1 (configuration not stated),inconclusive: -63.9% [inhibitor],
COc1ccc(NC(=O)CN2C(=O)NC(c3ccccc3)(c3ccccc3)C2=O)cc1OC,,"inconclusive: 50.1 µM [inhibitor, single point]"
Cc1cccc(N2CCN(S(=O)(=O)c3ccc4c(c3)C(C(C)C)C(=O)N4)CC2)c1C (configuration not stated),inactive: -43.1%,
COc1ccccc1CCNC(=O)c1ccccc1SCC(=O)N1CCCC1,inactive: 19.5% [at 12.7 µM],
CN1C(=S)SC(C)(C)C1/[N+]([O-])=C/c1cccnc1 (configuration not stated),inactive: 0.536% [at 12.7 µM],
O=C(Nc1cccc(O)c1)c1cc2nc(-c3ccc(Br)cc3)cc(C(F)(F)F)n2n1,inactive: -0.119%,
COc1ccc(CNc2nc3ccccc3n2Cc2ccc(C)cc2)cc1OC,,active: 79.4 µM
N#Cc1ccc(OCC(=O)OCC(=O)Nc2ccc(N3CCOCC3)cc2)cc1,,"inconclusive: 31.6 µM [inhibitor, partial curve, poor fit]"
CC(=O)Nc1nnc(-c2ccc(Cl)s2)o1,,active: 14.1 µM
CCN(CC)CCOC(=O)C(Cc1cccc2ccccc12)CC1CCCO1 (configuration not stated),,inactive
CC(=O)n1nc(-c2ccco2)nc1SCc1ccccc1,,active: 44.7 µM
Cc1ccc(/C=N/Nc2ccc(F)cc2)s1,,active: 50.1 µM
CC(C)c1ccc(Nc2nnns2)cc1,,active: 10 µM
Clc1ccc(OCCCc2nc(-c3cccnc3)no2)c(Cl)c1,inactive: 137% [at 102 µM],
COc1cc(NC(=O)CC2C(=O)N(c3cccc(C)c3)C(=O)N2Cc2ccco2)cc(OC)c1 (configuration not stated),,"inconclusive: 7.94 µM [inhibitor, partial curve, poor fit]"
CCOc1ccc(C(=O)CSc2nnc(C3CC3)n2C)cc1,,"inconclusive: 17.8 µM [inhibitor, single point]"
CCCC1(C)SC(NC(C)=O)=NN1C(C)=O (configuration not stated),inactive: -27% [at 102 µM],
Cc1ccc(-c2ccc(OCC(=O)N3CCOCC3)cc2)cc1,inactive: -6.99% [at 12.7 µM],
COc1cccc(Nc2nnc(SCC(=O)N3CCOCC3)s2)c1,inactive: 3.47% [at 102 µM],
COc1cc2c(cc1OC)CN(C(=O)c1ccc(Br)o1)CC2,,active: 50.1 µM
